# Laboratory results as given in the supplement of paper PMC3334620.
# Over roughly 33,000 sequences, “E-score (-0.5 to 0.5)” has its median near -0.012; the highest 2% begin near 0.27. The list shows a part of the results.
# Molecular target: T1, Vhr1 (UniProt P40522)
# T1 sequence: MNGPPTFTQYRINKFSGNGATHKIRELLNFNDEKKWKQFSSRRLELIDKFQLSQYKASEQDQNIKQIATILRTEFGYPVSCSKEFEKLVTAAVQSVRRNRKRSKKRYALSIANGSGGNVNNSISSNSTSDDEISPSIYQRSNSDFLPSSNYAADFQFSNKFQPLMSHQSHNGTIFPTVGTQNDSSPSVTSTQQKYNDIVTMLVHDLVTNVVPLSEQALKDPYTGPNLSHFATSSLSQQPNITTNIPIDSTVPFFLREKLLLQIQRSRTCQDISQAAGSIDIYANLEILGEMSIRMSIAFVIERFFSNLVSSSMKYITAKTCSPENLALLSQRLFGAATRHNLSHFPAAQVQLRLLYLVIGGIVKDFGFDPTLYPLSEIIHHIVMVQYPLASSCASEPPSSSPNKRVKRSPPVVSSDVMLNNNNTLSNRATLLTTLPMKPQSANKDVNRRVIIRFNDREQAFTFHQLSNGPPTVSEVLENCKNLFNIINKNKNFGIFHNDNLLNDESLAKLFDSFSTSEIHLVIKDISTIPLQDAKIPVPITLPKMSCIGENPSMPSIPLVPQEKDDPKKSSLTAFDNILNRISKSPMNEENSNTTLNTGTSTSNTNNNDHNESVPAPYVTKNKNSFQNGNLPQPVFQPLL
# Assay: PBM E-score (8-mer binding enrichment) (E-score (-0.5 to 0.5)); higher = stronger / more preferred TF binding; most listed sequences are background and not binding sites
# Details: protein concentration: 200 nM; construct: GST-full length
# Summary of the method: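 PURExpress in vitro transcription/translation supplied GST-tagged yeast transcription factors, either full-length or DNA-binding domain. Applied at about 100-200 nM to universal all-10-mer Agilent arrays double-stranded by primer extension, the bound protein was detected with fluorescent anti-GST. E-scores, modified Wilcoxon-Mann-Whitney statistics, were given by the Universal PBM Analysis Suite to ungapped eight-base words pooled with their reverse complements after masliner normalisation.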
row,Sequence,PBM E-score
1,ATGGCCCA,-0.171
2,CCCCTCCC,0.171
3,CGTTACGA,0.0568
4,GGTTCTGA,0.129
5,GCATGCGA,0.159
6,GCCGTGAC,0.234
7,TGATAAAA,-0.095
8,GATTTCAA,-0.249
9,ATAGGACG,-0.136
10,AGCCACCT,-0.0568
11,GGCTACCA,-0.0282
12,ATGATTAG,0.317
13,GGATGGTA,0.137
14,GGACATTA,0.13
15,ACGTAACC,-0.129
16,CAATGATG,0.1
17,CCCGGTGA,0.0388
18,AGTCATCA,0.439
19,ATCGACTC,0.191
20,CGTCGCAG,0.0721
21,AGCCCAAC,-0.0844
22,ATCTTGAG,0.0114
23,CAGGGCGA,0.038
24,GGGACGAA,-0.14

row,Sequence,PBM E-score
1,GGAGATAC,0.0377
2,CGTGACAA,-0.0207
3,CTTCCCGA,0.113
4,AACGCATT,3e-05
5,ACTGACCG,-0.0765
6,CATCTTGA,0.0453
7,AATGCTGT,-0.279
8,AGGCTAAT,0.00758
9,CACGCTTA,-0.15
10,CATGTACC,-0.019
11,GCCTGCCA,-0.174
12,AGTGTGCC,-0.143
13,CGGGGGTA,-0.0254
14,CCCGAAAA,-0.0155
15,GCCGACAC,0.0401
16,GAGGATTA,-0.13
17,GAACTTGC,-0.173
18,CTTCGATA,-0.0278
19,ACCCGGAG,0.216
20,GCAGCACA,0.148
21,GGCAGTAA,0.125
22,CATAAGAC,-0.0681
23,ATGGGTAG,0.113
24,TGACCGAA,0.045

row,Sequence,PBM E-score
1,ACTGTAAA,-0.0312
2,AAACCAAA,-0.0827
3,CAGATCCA,-0.0204
4,CAGGTGAA,-0.0384
5,CCAGCGAA,-0.12
6,CCGTACTC,0.108
7,GGTCACCA,-0.102
8,CTATCGAG,0.167
9,CGTGGGGC,-0.212
10,AAGCTAAT,-0.0952
11,AGTTATCG,0.148
12,CTGTGTAC,0.113
13,ACCAACAT,0.157
14,GCCGCCTA,-0.144
15,GTCAACAA,-0.00888
16,AGCCAGCC,0.111
17,ACTGTCTG,0.0301
18,AAATAGTA,0.0683
19,CCAAAACC,-0.0417
20,CGTCGAAA,-0.143
21,GCTTCAAC,-0.206
22,CCCTCCGG,-0.118
23,GGCCGAAC,0.0207
24,GCATGTCA,0.121

row,Sequence,PBM E-score
1,CAACCGTG,0.00918
2,CCCACATC,-0.0619
3,ACGAGTAC,0.0901
4,AGAGGAGG,-0.211
5,ATACGCCA,0.0396
6,CACGCCCA,0.178
7,CGGCGGGA,-0.0278
8,AAGGAATA,-0.0657
9,CCAAAGAG,-0.0142
10,TCGTATAA,0.114
11,AAATAACC,-0.0908
12,AATTTTGG,-0.212
13,GAGGTGAA,-0.0638
14,GAGAGCAA,-0.0994
15,AGCTTTAA,-0.201
16,GAATCGTA,0.201
17,AGATTACA,0.153
18,GCTAAACC,-0.209
19,CCTCAGCC,-0.0698
20,GGTCAACC,0.0175
21,GAGCCGCC,0.0604
22,CTGTCCCA,-0.0909
